Paper PMC6919601, “Identification of Plasmodium dipeptidyl aminopeptidase allosteric inhibitors by high throughput screening” (PLoS ONE, 2019)
“And” between values parts separate entries of the source, which are not always exact repeats. Equal values may be shown once. Out of some 110,000 compounds screened, about 230 (0.21%) showed an effect of 50% or more. The list shows a part of the results.

Target: DPAP1 (Plasmodium falciparum, UniProt Q8IIJ9)
Test: primary screen, percent inhibition; read by cleavage of a fluorogenic dipeptide substrate; higher = more effect of the substance
Design: species or system P. falciparum D10 trophozoite lysates; single well
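Further: 30 min substrate incubation versus DMSO and 10 µM JCP410 controls.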

DPAP1, sequence (Q8IIJ9 whole entry, looked up): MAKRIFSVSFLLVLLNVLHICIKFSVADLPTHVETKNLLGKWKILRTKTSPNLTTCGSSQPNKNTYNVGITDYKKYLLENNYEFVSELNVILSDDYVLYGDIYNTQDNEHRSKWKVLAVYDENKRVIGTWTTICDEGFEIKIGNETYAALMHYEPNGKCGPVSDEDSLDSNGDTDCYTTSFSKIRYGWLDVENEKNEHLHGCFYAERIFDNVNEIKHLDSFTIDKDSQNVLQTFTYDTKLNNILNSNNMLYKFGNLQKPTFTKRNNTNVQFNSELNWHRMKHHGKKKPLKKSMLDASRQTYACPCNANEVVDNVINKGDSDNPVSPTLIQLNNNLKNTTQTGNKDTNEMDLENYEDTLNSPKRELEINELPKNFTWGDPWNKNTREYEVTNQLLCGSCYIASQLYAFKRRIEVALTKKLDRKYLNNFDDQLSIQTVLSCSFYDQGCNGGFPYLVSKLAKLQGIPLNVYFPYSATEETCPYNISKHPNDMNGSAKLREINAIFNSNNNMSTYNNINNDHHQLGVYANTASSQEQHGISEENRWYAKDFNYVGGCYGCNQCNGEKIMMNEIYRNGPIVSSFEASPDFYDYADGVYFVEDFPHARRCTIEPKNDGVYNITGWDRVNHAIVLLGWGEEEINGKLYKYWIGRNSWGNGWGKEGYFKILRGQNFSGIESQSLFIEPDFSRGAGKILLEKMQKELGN

Row | SMILES | % Inhibition @ 10 uM
1 | Cc1ccc(S(=O)(=O)NCCC(=O)N2CCN(Cc3ccccc3)CC2)cc1 | 5.23%
2 | CCOc1ccc2nc(NC3=NCN(Cc4ccco4)CN3)nc(C)c2c1 | 0.0539%
3 | CCN1C(=O)C2(C(C#N)=C(N)Oc3[nH]nc(-c4ccc(F)cc4)c32)c2ccccc21 (stereo not drawn) | 0.658%
4 | Cc1cccc(Oc2ccc(NC(=O)C3CC=CCC3C(=O)O)cc2)c1 (stereo not drawn) | 1.03%
5 | COC(=O)c1sccc1-n1cccc1 | -5.32%
6 | COC(=O)C1=C(C)OC(N)=C(C#N)C1c1cc(Br)c(O)c(Br)c1 (stereo not drawn) | 0.4%
7 | CC(NC(=O)CN1C(=O)CSc2ncccc21)c1ccccc1 (stereo not drawn) | 2.65%
8 | Cc1cc(OCC(=O)N2CCN(Cc3ccccc3)CC2)cc(C)c1Br | -5.81%
9 | COc1cccc(NC(=O)c2ccc(Cl)cc2)c1 | -1.25%
10 | CC1CCC2(CC1)N=C(c1cccc(F)c1)C(=O)N2 (stereo not drawn) | 2.35%
11 | N#CCNC(=O)[C@H](CS(=O)(=O)Cc1cc(C(F)(F)F)cc(C(F)(F)F)c1)NC(=O)c1ccccc1 | -6.98%
12 | CC(C)N(Cc1ccccc1)C(=O)c1cc(S(=O)(=O)N2CCOCC2)cn1C | -1.26%
13 | Fc1ccccc1N1CCN(Cc2ccc(Cl)c(Cl)c2)CC1 | 3.1%
14 | Cc1ccc(CNC(=O)CCNS(=O)(=O)c2ccc3nc(O)ccc3c2)o1 | -0.544%
15 | Sc1nc2ccccc2n1CCOc1ccccc1 | 13.5%
16 | N#CC1=C2SCN(C3CCCC3)CN2C(=O)CC1c1ccc(Cl)cc1 (stereo not drawn) | 55.3%
17 | CC(=O)c1cc(F)c(N2CCN(C(=O)c3ccc(F)c(F)c3)CC2)cc1C | 4.83%
18 | CCCCCC(=O)N1CCN(CC/N=C/C2=C(O)CC(c3ccco3)CC2=O)CC1 (stereo not drawn) | -3.14%
19 | Cc1ccccc1CSc1nc2c(sc3ccccc32)c(=O)n1CCO | 8.13%
20 | COc1ccc(Br)cc1C(=O)Nc1ccccc1N1CCCC1 | 2.4%
21 | COCCCNC(=O)/C(C#N)=C/c1c(Oc2ccc(OC)cc2)nc2c(C)cccn2c1=O | 2%
22 | O=C1NCCCc2cc(Cl)sc21 | 1.64%
23 | CCc1ccc(CNC(=O)CN(C)c2nnc(-n3cccc3)s2)cc1 | -2.25%
24 | Nc1nonc1-n1nnc(C(=O)O)c1-c1ccccc1 | 1.62%
25 | CC1Oc2ccccc2C=C1/C=C1\SC(N2CCOCC2)=NC1=O (stereo not drawn) | -1.63%

Row | SMILES | % Inhibition @ 10 uM
26 | Cc1ccc(C23CC4CC(CC(C(=O)NC(C)(C)CO)(C4)C2)C3)cc1 | 3.65%
27 | CC(=O)Nc1ccc(NC(=O)CN(c2ccc(Cl)cc2)S(C)(=O)=O)cc1 | -9.02%
28 | CCOC(=O)N1CCC(NC(=O)CCc2c(C)nc3cc(-c4ccc(Cl)cc4)nn3c2C)CC1 | 1.26%
29 | Cc1cc(OCCn2cc(C(=O)O)c3ccccc32)ccc1Cl | 3.93%
30 | CN(C)CCCC1(O)c2ccccc2CCc2ccccc21 | -2.63%
31 | Cc1ccccc1-c1nnc(CN2CCc3ccccc3C2)o1 | 2.44%
32 | CCN1C/C(=C\c2ccccc2)C(=O)/C(=C/c2ccccc2)C1 | 7.57%
33 | COc1ccc2c(CNCCc3ccccc3)c(C(=O)O)n(Cc3ccc(F)cc3Cl)c2c1 | 6.19%
34 | O=C(c1cc(S(=O)(=O)N2CCCCC2)c[nH]1)N1CCN(CCOc2ccc(Cl)cc2)CC1 | -2.22%
35 | COc1ccc(S(=O)(=O)Nc2cnn(Cc3c(F)cccc3Cl)c2)cc1 | 6.37%
36 | CCOC(=O)N1CCC(NC(=O)c2cnn(-c3ccccc3)c2-n2cccc2)CC1 | -3.35%
37 | O=C(CCN1C(=O)c2ccccc2C1=O)Nc1cccc(Cl)c1 | -0.366%
38 | COc1cccc2c1OC(CCSC)N1N=C(c3cc(C)ccc3O)CC21 (stereo not drawn) | -1.68%
39 | CSC1=C(C#N)C(c2ccccc2Cl)CC(=O)N1 (stereo not drawn) | 3.96%
40 | CC1=C(C(=O)Nc2ccc(C)cn2)C(c2ccc(Br)cc2)C2=C(O)CC(C)(C)CC2=N1 (stereo not drawn) | 2.36%
41 | O=C(CCCN1C(=O)C(c2ccccc2)Oc2cccnc21)NCCc1cccs1 (stereo not drawn) | -0.995%
42 | COCCCNC(=O)CSc1nc2c(sc3ccccc32)c(=O)n1Cc1ccccc1Cl | 1.41%
43 | COc1cccc(CNC(=O)c2cc3oc4ccccc4c3n2C)c1 | 1.38%
44 | O=S(=O)(c1cccc2cccnc12)N1CCCCC1 | -3.77%
45 | COc1ccc(-c2cc3c(=O)n(CC(=O)NCCC4=CCCCC4)ncn3n2)cc1 | -6.58%
46 | CCC(Sc1nc2ccncc2[nH]1)C(=O)NCCc1ccccc1 (stereo not drawn) | -0.637%
47 | O=C(/C=C/c1ccccc1Cl)Nc1ccc(Cl)cc1 | 2.94%
48 | CC(C)Cn1c(=O)c2sccc2n2c(CCCC(=O)N3CC=C(c4ccccc4)CC3)nnc12 | -1.31%
49 | NC(=O)c1cc(-c2csc(N)n2)ccc1O | 4.42%
50 | COc1ccc(CN2CCN(S(C)(=O)=O)CC2)c(OC)c1OC | -1.2%

Row | SMILES | % Inhibition @ 10 uM
51 | Oc1nnc(SCc2cccc3ccccc23)c(O)n1 | -2.6%
52 | COc1ccc(C2NC(S)=NC3=C2CCc2ccc(OC)cc23)cc1 (stereo not drawn) | 1.42%
53 | O=C(Cn1nc(C(F)(F)F)cc1C1CC1)Nc1cccc(F)c1 | 3.24%
54 | CC(Cc1ccccc1F)N(CCO)Cc1ccccc1 (stereo not drawn) | -1.75%
55 | Cc1ccc(S(=O)(=O)N2CCC(C(=O)N3CCC(C(=O)NC4CCCC4)CC3)CC2)cc1 | 0.387%
56 | Cn1c(=O)c2c(ncn2CC(=O)Nc2ccc(Cl)cc2C(=O)c2ccccc2)n(C)c1=O | 4.49%
57 | O=C(O)c1cccc2c1NC(C(=O)O)C1CC=CC21 (stereo not drawn) | 65.6%
58 | CC1=CC(C)(C)N(CC(=O)c2ccccc2)c2ccc(C)cc21 | 0.912%
59 | Cc1cc(C)n2ncc(C(=O)O)c2n1 | -2.2%
60 | CCC1CCCCN1C(=O)c1c(OC)cccc1OC (stereo not drawn) | 5.42%
61 | Cc1cc(CO)c(C)n1-c1ccc(Cl)c(Cl)c1 | -2.87%
62 | O=C(Cn1ncn2c(cc3sccc32)c1=O)NCCc1ccc(Cl)cc1 | -1.58%
63 | COc1ccc(NC(=O)Cc2cccs2)c(OC)c1 | -9.24%
64 | O=C(CNS(=O)(=O)c1ccccc1)N1CCN(C(c2ccccc2)c2ccccc2)CC1 | -8.92%
65 | COc1ccc(NC(=O)/C(=C/c2cccs2)NC(=O)c2ccc(C)c(C)c2)cc1 | 2.26%
66 | Cc1c(CN2CCN(c3ncccn3)CC2)c(=O)n(-c2ccccc2)n1C | 3.48%
67 | Cc1c(C(c2cc(Cl)cc([N+](=O)[O-])c2O)c2c(C)n(C)n(-c3ccccc3)c2=O)c(=O)n(-c2ccccc2)n1C | 1.87%
68 | CCN1C(=O)c2ccc(-c3nc4cc(Cl)ccc4o3)cc2C1=O | -0.598%
69 | Cn1c(=O)c2c(-c3ccc(Cl)cc3)n(-c3ccc(O)cc3)cc2n(C)c1=O | -4.95%
70 | COc1ccc(Cl)cc1N1C(=O)C(Cl)=C(Nc2cccc(O)c2)C1=O | 3.96%
71 | O=C(Nc1ccccc1)Nc1ccc(S(=O)(=O)NC2CCCCC2)cc1 | 1.25%
72 | Cc1cccc(NC(=O)NC(=O)c2ccc3ccccc3c2)c1 | 5.73%
73 | CN(Cc1ccccc1)C(=O)Nc1ccccc1 | -0.351%
74 | COc1cc(/C=C2\Sc3ccccc3C2=O)c([N+](=O)[O-])cc1OC | 0.634%
75 | CC(C)OP(=O)(OC(C)C)C(OC(N)=O)c1ccc(Br)cc1 (stereo not drawn) | 5.48%

Row | SMILES | % Inhibition @ 10 uM
76 | Cc1nc2ccccc2nc1N1CCOCC1 | -0.711%
77 | COc1cc(C2Oc3ccccc3C3CC(c4ccccc4O)=NN32)cc(OC)c1OC (stereo not drawn) | -5.36%
78 | CN(C(=O)Cn1cc(S(=O)(=O)Cc2ccccc2F)c2ccccc21)C1CCCCC1 | -1.6%
79 | Cc1ccc(OCc2nnc(-c3ccccc3Cl)o2)cc1 | 3.74%
80 | Cc1cc(C)c2c(-n3cccc3)c(C(=O)N3CCN(C)CC3)sc2n1 | -4.68%
81 | CCOc1ccc(NC2=NS(=O)(=O)c3ccccc32)cc1 | 5.68%
82 | CCCc1nn(-c2ccc(F)cc2)c(O)c1/C=N/CCc1ccc(S(N)(=O)=O)cc1 | -4.91%
83 | Nc1c(NCCN2CCCCC2)c2ccccc2oc1=O | -8.15%
84 | COc1cc(C(CC(=O)NCCN2CCOCC2)N2Cc3ccccc3C2=O)cc(OC)c1OC (stereo not drawn) | -6.53%
85 | Cc1ccccc1C1C(C#N)=C(N)Oc2ncnc(O)c21 (stereo not drawn) | -0.994%
86 | NC1=NC(c2ccccc2)n2c(nc3ccccc32)N1 (stereo not drawn) | -3.13%
87 | COc1ccccc1Nc1nc(-c2ccccc2)cs1 | 7.62% and -0.771%
88 | COc1cccc(C2CC(C(F)(F)F)n3ncc(C(=O)NCC4CCCO4)c3N2)c1 (stereo not drawn) | -3.53%
89 | COc1ccc(/C=C/c2nc(C#N)c(N3CC(C)CC(C)C3)o2)cc1OC (stereo not drawn) | 2.54%
90 | COc1ccc(-c2cc(C(F)F)n3ncc(C(=O)Nc4ccc5c(c4)OCCO5)c3n2)cc1 | -14.8%
91 | CCOCCCNC(=O)c1nnc(Cc2ccc(Cl)cc2Cl)o1 | -1.14%
92 | Cn1c(N2CCCCCC2)nc2c1c(=O)[nH]c(=O)n2C | -1.2%
93 | O=S(=O)(NCCOc1ccccc1)c1ccc2oc3cc(-n4cnnn4)ccc3c2c1 | 3.68%
94 | CCN(CC)C(=O)c1cc2c(O)nc3ccccc3c2s1 | 1.23%
95 | Cc1ccc(S(=O)(=O)N(CC(=O)N2CCN(c3ccc(F)cc3)CC2)Cc2ccccc2)cc1 | -4.93%
96 | COc1ccc(-c2nnc(-c3ccc(OC)c(OC)c3)o2)cc1OC | 2.41%
97 | Cc1nc2ccc(S(=O)(=O)NCC(=O)N(C)Cc3ccco3)cc2s1 | -2.45%
98 | CCOC(=O)N1CCN(C(=O)c2cc(-c3ccc(F)cc3)[nH]c2C)CC1 | -8.34%
99 | Cc1cc(C)c(C#N)c(SCc2ccc(Cl)nc2)n1 | -6.51%
